Assay results as given in PMC3642079.
Results are given in words; binding and its absence hold for the method and conditions named. In cells and extracts the contact can be indirect. Some binding calls cover weakened binding; strength is not graded here. For some assays here: Where a sequence is shown, tags or fusion partners need not be part of it.

Assays:
[1] = target: T1, GST-IRF4 fusion protein (human) (UniProt Q15306); assay: pull-down; only the target purified
T1 sequence: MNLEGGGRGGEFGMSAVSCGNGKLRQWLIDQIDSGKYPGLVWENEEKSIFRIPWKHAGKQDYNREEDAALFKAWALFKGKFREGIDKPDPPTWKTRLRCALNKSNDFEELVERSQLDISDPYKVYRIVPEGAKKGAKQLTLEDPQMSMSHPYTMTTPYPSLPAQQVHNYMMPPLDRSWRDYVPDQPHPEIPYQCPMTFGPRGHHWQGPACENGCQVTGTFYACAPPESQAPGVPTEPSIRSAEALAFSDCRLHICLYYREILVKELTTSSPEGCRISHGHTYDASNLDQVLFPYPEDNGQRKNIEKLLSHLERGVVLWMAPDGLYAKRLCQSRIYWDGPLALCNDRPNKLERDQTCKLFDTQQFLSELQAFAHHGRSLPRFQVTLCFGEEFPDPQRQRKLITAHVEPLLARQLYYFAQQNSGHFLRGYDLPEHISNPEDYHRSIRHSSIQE

[2] = target: T2, GST-IRF8 fusion protein (human) (UniProt Q02556); assay: pull-down; only the target purified
T2 sequence: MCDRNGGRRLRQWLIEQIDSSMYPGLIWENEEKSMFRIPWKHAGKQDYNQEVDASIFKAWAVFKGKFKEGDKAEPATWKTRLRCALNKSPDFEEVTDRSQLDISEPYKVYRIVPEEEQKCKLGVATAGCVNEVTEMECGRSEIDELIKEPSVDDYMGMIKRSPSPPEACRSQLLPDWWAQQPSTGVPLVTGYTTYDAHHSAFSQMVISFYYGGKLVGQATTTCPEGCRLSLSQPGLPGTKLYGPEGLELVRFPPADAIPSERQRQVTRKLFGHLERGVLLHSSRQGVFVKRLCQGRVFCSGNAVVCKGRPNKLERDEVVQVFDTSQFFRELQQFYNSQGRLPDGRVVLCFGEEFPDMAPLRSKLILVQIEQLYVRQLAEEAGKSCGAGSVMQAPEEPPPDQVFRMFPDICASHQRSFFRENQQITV

[3] = target: T3, Flag-tagged full length IRF4 (residues 1-451) (human) (UniProt Q15306); assay: co-IP
T3 sequence: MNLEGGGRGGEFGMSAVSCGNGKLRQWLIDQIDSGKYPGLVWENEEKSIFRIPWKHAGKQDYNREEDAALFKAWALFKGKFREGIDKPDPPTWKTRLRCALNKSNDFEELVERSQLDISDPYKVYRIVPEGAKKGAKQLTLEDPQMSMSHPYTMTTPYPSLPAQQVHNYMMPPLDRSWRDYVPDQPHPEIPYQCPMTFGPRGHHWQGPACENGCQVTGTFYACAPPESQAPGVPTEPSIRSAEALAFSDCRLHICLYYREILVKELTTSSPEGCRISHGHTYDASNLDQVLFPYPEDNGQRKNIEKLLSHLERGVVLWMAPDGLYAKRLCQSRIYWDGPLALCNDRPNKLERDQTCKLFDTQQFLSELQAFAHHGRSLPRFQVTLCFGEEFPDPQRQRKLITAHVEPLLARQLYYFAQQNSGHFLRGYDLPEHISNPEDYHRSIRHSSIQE

[4] = target: Flag-tagged IRF4 residues 246-451 (human) (UniProt Q15306); assay: co-IP
Flag-tagged IRF8 (human) = target: T4, Flag-tagged IRF8 (human) (UniProt Q02556); assay: co-IP
T4 sequence: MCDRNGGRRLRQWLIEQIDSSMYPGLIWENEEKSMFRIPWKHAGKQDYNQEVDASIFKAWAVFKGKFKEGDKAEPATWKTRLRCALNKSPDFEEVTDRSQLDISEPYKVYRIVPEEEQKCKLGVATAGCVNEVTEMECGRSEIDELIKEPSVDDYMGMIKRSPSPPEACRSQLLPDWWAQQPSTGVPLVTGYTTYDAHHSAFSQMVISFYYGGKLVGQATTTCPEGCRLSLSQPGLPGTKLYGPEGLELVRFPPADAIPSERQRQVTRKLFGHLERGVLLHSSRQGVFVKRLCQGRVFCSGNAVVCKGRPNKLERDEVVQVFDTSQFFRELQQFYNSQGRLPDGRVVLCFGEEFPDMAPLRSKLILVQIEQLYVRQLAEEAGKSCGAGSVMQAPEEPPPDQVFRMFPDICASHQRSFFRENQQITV

[5] = target: Myc-tagged IRF8 residues 279-426 (human) (UniProt Q02556); assay: co-IP; HEK-293 co-transfected with Myc-tagged IRF8 truncated mutants and Flag-tagged EBNA3C; harvested 36 h after transfection; IP with 1 µg anti-Flag or anti-Myc antibody (which one is not told), blot with anti-Myc and anti-Flag
[6] = target: T1, GST-IRF4 fusion protein (human); assay: pull-down; S35-radiolabeled in vitro translated EBNA3C (T7-TNT kit), pre-cleared with GST beads, incubated with GST control, GST-IRF4 or GST-IRF8 beads; washed with Binding Buffer; phosphoimager; only the target purified
[7] = target: T2, GST-IRF8 fusion protein (human); assay: as above
[8] = target: EBNA3C stably expressed in BJAB cells (BJAB7, BJAB10) (Epstein-Barr virus) (UniProt P03204); assay: co-IP; lysates of BJAB, BJAB7, BJAB10, LCL1, LCL2; IP with A10 (EBNA3C), IRF4 or IRF8 specific antibodies; endogenous EBNA3C, IRF4, IRF8 detected by blot
[9] = target: EBNA3C expressed in EBV-transformed lymphoblastoid cell lines LCL1 and LCL2 (Epstein-Barr virus) (UniProt P03204); assay: as above
[10] = target: Myc-tagged EBNA3C residues 621-992 (Epstein-Barr virus (strain B95-8)) (UniProt P03204); assay: co-IP; HEK-293 co-transfected with full length or truncated Myc-EBNA3C and Flag-IRF4 or Flag-IRF8; harvested 36 h after transfection; IP with 1 µg anti-Myc antibody, blot with anti-Myc and anti-Flag
[11] = target: Myc-tagged EBNA3C residues 366-620 (Epstein-Barr virus (strain B95-8)) (UniProt P03204); assay: as above
[12] = target: Myc-tagged EBNA3C residues 1-365 (Epstein-Barr virus (strain B95-8)) (UniProt P03204); assay: as above
[13] = target: Myc-tagged full length EBNA3C (residues 1-992) (Epstein-Barr virus (strain B95-8)) (UniProt P03204); assay: as above
[14] = target: GST-EBNA3C residues 130-190 (Epstein-Barr virus (strain B95-8)) (UniProt P03204); assay: pull-down; S35-radiolabeled in vitro translated Flag-IRF4 or IRF8 incubated with GST control or GST-EBNA3C (truncated, wild type 130-159 or point mutant) beads; phosphoimager, relative binding units; only the target purified
[15] = target: Wild type GST-EBNA3C (residues 130-159) (Epstein-Barr virus (strain B95-8)) (UniProt P03204); assay: as above

Q: For “EBNA3C expressed in EBV-transformed lymphoblastoid cell lines LCL1 and LCL2 (from UniProt P03204 1-992)”, which binding [1] is on record?
A: Its binding is “binds”.

Q: And the binding [2]?
A: Its binding is “binds”.

Q: For “Myc-tagged full length EBNA3C (residues 1-992) (from UniProt P03204 1-992)”, which binding [3] is on record?
A: The binding was “binds”.

Q: What about the binding [4] of the same molecule?
A: The binding was “binds”.

Q: What about the binding (Flag-tagged IRF8 (human)) of the same molecule?
A: The binding was “binds”.

Q: With “Flag-tagged EBNA3C (from UniProt P03204 1-992)” as the molecule, how does the binding [5] read?
A: The binding was “binds”.

Q: For “in vitro translated EBNA3C residues 1-365 (from UniProt P03204 1-365) (domain or fragment)”, which binding [6] is on record?
A: Its binding is “binds”.

Q: And the binding [7]?
A: The binding was “binds”.

Q: Which binding [1] does the source give for “EBNA3C stably expressed in BJAB cells (BJAB7, BJAB10) (from UniProt P03204 1-992)” here?
A: The binding was “binds”.

Q: What about the binding [2] of the same molecule?
A: The binding was “binds”.

B1: endogenous IRF8 (protein, UniProt Q02556 1-426)
chain: MCDRNGGRRLRQWLIEQIDSSMYPGLIWENEEKSMFRIPWKHAGKQDYNQEVDASIFKAWAVFKGKFKEGDKAEPATWKTRLRCALNKSPDFEEVTDRSQLDISEPYKVYRIVPEEEQKCKLGVATAGCVNEVTEMECGRSEIDELIKEPSVDDYMGMIKRSPSPPEACRSQLLPDWWAQQPSTGVPLVTGYTTYDAHHSAFSQMVISFYYGGKLVGQATTTCPEGCRLSLSQPGLPGTKLYGPEGLELVRFPPADAIPSERQRQVTRKLFGHLERGVLLHSSRQGVFVKRLCQGRVFCSGNAVVCKGRPNKLERDEVVQVFDTSQFFRELQQFYNSQGRLPDGRVVLCFGEEFPDMAPLRSKLILVQIEQLYVRQLAEEAGKSCGAGSVMQAPEEPPPDQVFRMFPDICASHQRSFFRENQQITV
Q: B1 was tested. Which binding [8] did it give?
A: Its binding is “binds”.

Q: And the binding [9]?
A: The binding was “binds”.

B2: endogenous IRF4 (protein, UniProt Q15306 1-451)
chain: MNLEGGGRGGEFGMSAVSCGNGKLRQWLIDQIDSGKYPGLVWENEEKSIFRIPWKHAGKQDYNREEDAALFKAWALFKGKFREGIDKPDPPTWKTRLRCALNKSNDFEELVERSQLDISDPYKVYRIVPEGAKKGAKQLTLEDPQMSMSHPYTMTTPYPSLPAQQVHNYMMPPLDRSWRDYVPDQPHPEIPYQCPMTFGPRGHHWQGPACENGCQVTGTFYACAPPESQAPGVPTEPSIRSAEALAFSDCRLHICLYYREILVKELTTSSPEGCRISHGHTYDASNLDQVLFPYPEDNGQRKNIEKLLSHLERGVVLWMAPDGLYAKRLCQSRIYWDGPLALCNDRPNKLERDQTCKLFDTQQFLSELQAFAHHGRSLPRFQVTLCFGEEFPDPQRQRKLITAHVEPLLARQLYYFAQQNSGHFLRGYDLPEHISNPEDYHRSIRHSSIQE
Q: Which binding [8] does the source give for B2 here?
A: Its binding is “binds”.

Q: And the binding [9]?
A: The binding was “binds”.

B3: Flag-tagged full length IRF4 (residues 1-451) (protein, UniProt Q15306 1-451)
chain: MNLEGGGRGGEFGMSAVSCGNGKLRQWLIDQIDSGKYPGLVWENEEKSIFRIPWKHAGKQDYNREEDAALFKAWALFKGKFREGIDKPDPPTWKTRLRCALNKSNDFEELVERSQLDISDPYKVYRIVPEGAKKGAKQLTLEDPQMSMSHPYTMTTPYPSLPAQQVHNYMMPPLDRSWRDYVPDQPHPEIPYQCPMTFGPRGHHWQGPACENGCQVTGTFYACAPPESQAPGVPTEPSIRSAEALAFSDCRLHICLYYREILVKELTTSSPEGCRISHGHTYDASNLDQVLFPYPEDNGQRKNIEKLLSHLERGVVLWMAPDGLYAKRLCQSRIYWDGPLALCNDRPNKLERDQTCKLFDTQQFLSELQAFAHHGRSLPRFQVTLCFGEEFPDPQRQRKLITAHVEPLLARQLYYFAQQNSGHFLRGYDLPEHISNPEDYHRSIRHSSIQE
Q: Which results are given for B3?
A: binding [10]: no binding; binding [11]: no binding; binding [12]: binds; binding [13]: binds

B4: Flag-tagged IRF8 (protein, UniProt Q02556 1-426)
chain: MCDRNGGRRLRQWLIEQIDSSMYPGLIWENEEKSMFRIPWKHAGKQDYNQEVDASIFKAWAVFKGKFKEGDKAEPATWKTRLRCALNKSPDFEEVTDRSQLDISEPYKVYRIVPEEEQKCKLGVATAGCVNEVTEMECGRSEIDELIKEPSVDDYMGMIKRSPSPPEACRSQLLPDWWAQQPSTGVPLVTGYTTYDAHHSAFSQMVISFYYGGKLVGQATTTCPEGCRLSLSQPGLPGTKLYGPEGLELVRFPPADAIPSERQRQVTRKLFGHLERGVLLHSSRQGVFVKRLCQGRVFCSGNAVVCKGRPNKLERDEVVQVFDTSQFFRELQQFYNSQGRLPDGRVVLCFGEEFPDMAPLRSKLILVQIEQLYVRQLAEEAGKSCGAGSVMQAPEEPPPDQVFRMFPDICASHQRSFFRENQQITV
Q: With B4 as the molecule, how does the binding [10] read?
A: The binding was “no binding”.

Q: What about the binding [11] of the same molecule?
A: The binding was “no binding”.

Q: And the binding [12]?
A: The binding was “binds”.

Q: What about the binding [13] of the same molecule?
A: The binding was “binds”.

B5: in vitro translated Flag-IRF4 (protein, UniProt Q15306 1-451)
chain: MNLEGGGRGGEFGMSAVSCGNGKLRQWLIDQIDSGKYPGLVWENEEKSIFRIPWKHAGKQDYNREEDAALFKAWALFKGKFREGIDKPDPPTWKTRLRCALNKSNDFEELVERSQLDISDPYKVYRIVPEGAKKGAKQLTLEDPQMSMSHPYTMTTPYPSLPAQQVHNYMMPPLDRSWRDYVPDQPHPEIPYQCPMTFGPRGHHWQGPACENGCQVTGTFYACAPPESQAPGVPTEPSIRSAEALAFSDCRLHICLYYREILVKELTTSSPEGCRISHGHTYDASNLDQVLFPYPEDNGQRKNIEKLLSHLERGVVLWMAPDGLYAKRLCQSRIYWDGPLALCNDRPNKLERDQTCKLFDTQQFLSELQAFAHHGRSLPRFQVTLCFGEEFPDPQRQRKLITAHVEPLLARQLYYFAQQNSGHFLRGYDLPEHISNPEDYHRSIRHSSIQE
modifications: S35-radiolabeled
Q: What does the source list for B5?
A: binding [14]: binds; binding [15]: binds

B6: in vitro translated Flag-IRF8 (protein, UniProt Q02556 1-426)
chain: MCDRNGGRRLRQWLIEQIDSSMYPGLIWENEEKSMFRIPWKHAGKQDYNQEVDASIFKAWAVFKGKFKEGDKAEPATWKTRLRCALNKSPDFEEVTDRSQLDISEPYKVYRIVPEEEQKCKLGVATAGCVNEVTEMECGRSEIDELIKEPSVDDYMGMIKRSPSPPEACRSQLLPDWWAQQPSTGVPLVTGYTTYDAHHSAFSQMVISFYYGGKLVGQATTTCPEGCRLSLSQPGLPGTKLYGPEGLELVRFPPADAIPSERQRQVTRKLFGHLERGVLLHSSRQGVFVKRLCQGRVFCSGNAVVCKGRPNKLERDEVVQVFDTSQFFRELQQFYNSQGRLPDGRVVLCFGEEFPDMAPLRSKLILVQIEQLYVRQLAEEAGKSCGAGSVMQAPEEPPPDQVFRMFPDICASHQRSFFRENQQITV
modifications: S35-radiolabeled
Q: How did the binding [14] turn out when B6 was run?
A: The binding was “binds”.

Q: And the binding [15]?
A: The binding was “binds”.
